Data: PubChem BioAssay AID2147 (National Center for Advancing Translational Sciences (NCATS), 2009)
The campaign covered roughly 230,000 compounds. About 3,600 (1.6%) were called active. The shares of active, inactive and inconclusive entries below differ from those in the screen. Calls come from the whole dose curve; as a rule, active = well fitted inhibition curve with a large enough effect (not every such curve was filed as active); inconclusive = small, poorly fitted or top-dose-only effect, or another doubt; inactive = no such curve, though single readings can be large or run the other way. Potencies beside an inconclusive call are fits to weak or partial responses and may not hold up.
Note: nearly all actives have a fitted effect of over 50% in size.
Potency is the fitted concentration of half-maximal effect; tags give direction and shape of the fitted curve.

What follows are compounds tested against Lysine-specific demethylase 4E (Homo sapiens) (UniProt B2RXH2) (assay: qHTS Assay for Inhibitors of Human Jumonji Domain Containing 2E (JMJD2E)). Details: JMJD2E catalytic domain, FDH-coupled NADH fluorescence (FDH is formaldehyde dehydrogenase); series mostly up to 57.1 µM.
UniProt B2RXH2, sequence (B2RXH2 whole entry, looked up, the tested form may be a part): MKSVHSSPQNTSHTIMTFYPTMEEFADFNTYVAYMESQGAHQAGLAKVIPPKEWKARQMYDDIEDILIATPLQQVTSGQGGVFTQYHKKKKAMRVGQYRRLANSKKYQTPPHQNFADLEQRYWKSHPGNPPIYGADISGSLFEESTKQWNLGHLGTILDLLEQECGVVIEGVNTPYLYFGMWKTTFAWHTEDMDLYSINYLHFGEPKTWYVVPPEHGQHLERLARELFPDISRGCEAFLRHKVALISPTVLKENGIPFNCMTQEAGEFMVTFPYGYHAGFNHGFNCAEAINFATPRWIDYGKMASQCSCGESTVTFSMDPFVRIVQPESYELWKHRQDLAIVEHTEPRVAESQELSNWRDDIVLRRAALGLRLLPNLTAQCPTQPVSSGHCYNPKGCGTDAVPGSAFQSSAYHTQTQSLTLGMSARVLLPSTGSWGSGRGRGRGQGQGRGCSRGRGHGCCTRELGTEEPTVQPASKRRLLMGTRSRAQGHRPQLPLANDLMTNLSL
In the case of `Cc1nn(Cc2ccccc2Cl)c2sc(C(=O)OC3CCCC3=O)cc12` (stereo not drawn), the Potency is reported as “inactive”.
With `[O-]/[N+](=C\c1ccc(F)cc1)c1ccccc1` the Potency was “inactive”.
With `CCOC(=O)c1c(N)c(C#N)cn1-c1ccccc1` the Potency was inconclusive: 35.5 µM [inhibitor, single point].
`COc1cc2cc(CN(Cc3nnnn3C3CCCC3)C3CCCC3)c(=O)[nH]c2cc1OC` was tested, and the Potency was inconclusive: 25.1 µM [inhibitor, single point].
In the case of `N#CCSc1nc2c(c(=O)n1Cc1ccccc1)C1(CCCC1)Cc1ccccc1-2`, the Potency is reported as inconclusive: 39.8 µM [inhibitor, single point].
In the case of `O=[N+]([O-])c1ccc2c(c1N1CCCCC1)=NC1(CCCCC1)[N+]=2[O-]`, the Potency is reported as “inactive”.
`N#CC1=C(N)SC(N)=C(C#N)C1c1ccnc2ccccc12` was tested, and the Potency was inconclusive: 28.2 µM [inhibitor, single point].
With `O=C1CC(SC2=NCCS2)C(=O)N1c1ccc(Cl)cc1` (stereo not drawn) the Potency was “inactive”.
With `Cc1cc(C)cc(Nc2ccc(C(=O)O)cc2N)c1` the Potency was inconclusive: 2.51 µM [inhibitor, full curve].
For `Cc1ccc2[nH]c3c(=O)n(CCC4=CCCCC4)cnc3c2c1`, the Potency was “inactive”.
For `COCCCNC(=O)C1CCN(c2ccc(N3CCOCC3)nn2)CC1`, the Potency was inconclusive: 31.6 µM [inhibitor, partial curve].
For `CCC(C)(C)C(=O)Nc1ncc(S(=O)(=O)c2ccc([N+](=O)[O-])cc2)s1`, the Potency was “inactive”.
`CCNC(=S)Nc1ccc(NC(=O)c2ccccc2O)cc1` was tested, and the Potency was inconclusive: 20 µM [inhibitor, partial curve].
In the case of `CCN(C(=O)c1cnc(N2CCN(c3ncccn3)CC2)c2ccccc12)c1cccc(Cl)c1`, the Potency is reported as inconclusive: 39.8 µM [inhibitor, single point].
`Cc1sc(NC(=O)COc2ccccc2)c(C#N)c1C` was tested, and the Potency was inconclusive: 35.5 µM [inhibitor, single point].
For `COc1ccc(C2CC(c3ccc(Cl)c(Cl)c3)Nc3nc(N)nn32)cc1` (stereo not drawn), the Potency was inconclusive: 28.2 µM [inhibitor, single point].
`Cc1cc(=O)n(C)c(=O)n1CCCCCN1CCCC1` was tested, and the Potency was inconclusive: 28.2 µM [inhibitor, single point].
`Clc1ccc(-n2ncc3c(NCc4ccccn4)ncnc32)cc1` was tested, and the Potency was inconclusive: 31.6 µM [inhibitor, single point].
In the case of `CN(Cc1ccccc1)C(=O)Cn1cccc1C(=O)c1ccccc1`, the Potency is reported as “inactive”.
For `O=C(CSc1nc(-c2cccs2)cc(C(F)(F)F)n1)NCc1ccccc1`, the Potency was inconclusive: 28.2 µM [inhibitor, partial curve].
For `CCOc1ccc(Nc2nc(Cc3nnc(SCC(=O)O)o3)cs2)cc1`, the Potency was inconclusive: 25.1 µM [inhibitor, single point].
For `CCOC(=O)c1[nH]c(COC(=O)CCCOc2ccccc2)c(C(=O)OCC)c1C`, the Potency was inconclusive: 39.8 µM [inhibitor, single point].
With `COC(=O)N1C(/C=C/c2ccc3c(c2)OCO3)=Cc2ccccc2C1CC(C)=O` (stereo not drawn) the Potency was inconclusive: 3.98 µM [inhibitor, partial curve].
In the case of `Cc1cc(C)nc(N2CCC(CNC(=O)CCc3ccccc3)CC2)n1`, the Potency is reported as inconclusive: 20 µM [inhibitor, partial curve].
In the case of `O=C(CN(C1CCCCC1)S(=O)(=O)c1ccccc1)N1CCCC1`, the Potency is reported as “inactive”.
With `CCC(C(=O)NCCN1CCN(C)CC1)n1c(C)c2cnn(-c3ccccc3)c(=O)c2c1C` (stereo not drawn) the Potency was “inactive”.
For `COc1cccc(/C=N/NC(=O)CC(=O)NCCc2ccccc2)c1OC`, the Potency was inconclusive: 25.1 µM [inhibitor, partial curve].
In the case of `O=C(N/N=C/c1ccc(O)c(O)c1)c1ccc(CSc2cccc3cccnc23)cc1`, the Potency is reported as inconclusive: 25.1 µM [inhibitor, partial curve].
With `O=C(O)c1ccccc1Nc1ccccc1` the Potency was inconclusive: 39.8 µM [inhibitor, single point].
In the case of `COc1cc2c(cc1NC(=O)Nc1ccc(C)cc1)oc1ccccc12`, the Potency is reported as “inactive”.
For `Oc1oc(-c2ccco2)nc1C=Nc1cccc(Cl)c1`, the Potency was “inactive”.
With `Cc1ccccc1CN1N=C(/C=C/c2ccccc2)CCC1=O` the Potency was inconclusive: 3.16 µM [inhibitor, partial curve, poor fit].
In the case of `CCC1CCC(c2nnc(-c3ccc([N+](=O)[O-])cc3)o2)CC1` (stereo not drawn), the Potency is reported as “inactive”.
`c1ccc2c3c([nH]c2c1)[C@@H]1[C@H]2CC[C@H]([C@H]4CCCN[C@H]42)N1CC3` was tested, and the Potency was inconclusive: 14.1 µM [inhibitor, partial curve].
For `Cc1onc(-c2c(Cl)cccc2Cl)c1NC(=O)NNc1ccccc1`, the Potency was “inactive”.
`CCOc1ccc(S(=O)(=O)N/N=C2/CC(c3ccccc3)Oc3ccccc32)cc1` (stereo not drawn) was tested, and the Potency was “inactive”.
In the case of `O=C(N/N=C/c1ccco1)c1csc2c1CCCC2`, the Potency is reported as inconclusive: 39.8 µM [inhibitor, single point].
`COc1ccc(-c2csc(NC(=O)c3ccccc3NS(=O)(=O)c3ccc(F)c(F)c3)n2)cc1` was tested, and the Potency was inconclusive: 22.4 µM [inhibitor, partial curve].
With `N#CNC(=Nc1cccc(F)c1)SCc1ccccc1` the Potency was “inactive”.
In the case of `COc1ccc(N=Nc2ccc(N)nc2N)cc1`, the Potency is reported as inconclusive: 35.5 µM [inhibitor, partial curve].
In the case of `COc1ccccc1OCc1ccc(C(=O)N2CCOCC2)o1`, the Potency is reported as “inactive”.
`CCOC(=O)C1CC(=O)c2cc(OC)c(OC)cc2C1` (stereo not drawn) was tested, and the Potency was inconclusive: 28.2 µM [inhibitor, partial curve].
In the case of `Nc1nc(Cl)cc(N2CCC(c3cc(-c4ccc(Cl)cc4)n[nH]3)CC2)n1`, the Potency is reported as “inactive”.
With `CC(C)C(=O)Nc1c(C(=O)c2ccc(F)cc2)oc2ccccc12` the Potency was inconclusive: 39.8 µM [inhibitor, single point].
For `Cc1c(Cl)cccc1NC(=S)NC1CCN(C(C)C)CC1`, the Potency was “inactive”.
With `Cc1cc2n(n1)C(c1ccccc1)CC(c1ccc(Br)cc1)=N2` (stereo not drawn) the Potency was inconclusive: 39.8 µM [inhibitor, single point].
With `CCOC(=O)CS(=O)(=O)c1nc(-c2ccccc2)cc(C(F)(F)F)n1` the Potency was “inactive”.
`CS(=O)(=O)Nc1ccccc1C(=O)Nc1cccc(Cl)c1` was tested, and the Potency was inconclusive: 35.5 µM [inhibitor, partial curve].
